Out of some 110,000 compounds screened, about 230 (0.21%) showed an effect of 50% or more. Some of the results follow.
target: DPAP1 (Plasmodium falciparum, UniProt Q8IIJ9); assay: primary screen, percent inhibition; read by cleavage of a fluorogenic dipeptide substrate; higher = more effect of the substance; set-up: species or system P. falciparum D10 trophozoite lysates; single well
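Note: 30 min substrate incubation versus DMSO and 10 µM JCP410 controls.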

Chain of DPAP1 (Q8IIJ9 whole entry, looked up): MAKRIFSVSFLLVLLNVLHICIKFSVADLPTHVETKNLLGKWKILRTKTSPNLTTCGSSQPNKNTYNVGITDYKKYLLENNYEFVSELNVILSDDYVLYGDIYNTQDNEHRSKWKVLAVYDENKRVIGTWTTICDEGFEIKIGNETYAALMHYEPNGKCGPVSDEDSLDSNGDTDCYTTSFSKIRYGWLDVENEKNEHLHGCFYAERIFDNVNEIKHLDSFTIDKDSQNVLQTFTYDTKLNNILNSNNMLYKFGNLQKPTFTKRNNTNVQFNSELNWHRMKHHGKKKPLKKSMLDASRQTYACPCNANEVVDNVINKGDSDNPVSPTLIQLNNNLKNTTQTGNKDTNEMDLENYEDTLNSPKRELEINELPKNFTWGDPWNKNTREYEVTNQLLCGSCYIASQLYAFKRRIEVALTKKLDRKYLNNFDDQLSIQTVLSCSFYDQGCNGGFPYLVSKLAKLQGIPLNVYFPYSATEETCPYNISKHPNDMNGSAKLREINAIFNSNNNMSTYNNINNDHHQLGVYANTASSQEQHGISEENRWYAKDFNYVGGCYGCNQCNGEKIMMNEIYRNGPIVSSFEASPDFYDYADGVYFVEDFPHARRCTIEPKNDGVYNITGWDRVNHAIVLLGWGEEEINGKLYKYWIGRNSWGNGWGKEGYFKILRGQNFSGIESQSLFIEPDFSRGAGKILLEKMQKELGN

First: CC(=O)N(CCCN(C)C)c1nc2ccc(C)cc2s1
Second: CCN(CCN(C)C)C(=O)Cn1ncc2c(=O)oc3ccccc3c21
The “% Inhibition @ 10 uM” value of the first is lower: 0.49% for the first, 2.85% for the second.

Going from `COCCNC(=O)CS(=O)Cc1nc(-c2cccc(C)c2)oc1C` (stereo not shown) to `CCOCCCNC(=O)c1oc(=O)c2ccccc2c1-c1ccc(C)cc1`, the “% Inhibition @ 10 uM” value rises from -2.85% to 1.9%.

First: O=C(NCc1ccccc1)C(CS(=O)(=O)Cc1ccccc1)N1Cc2ccccc2C1=O (stereo not shown)
Second: CCC(c1nc2ccccc2n1C)C(O)(c1ccccc1)c1ccccc1 (stereo not shown)
The “% Inhibition @ 10 uM” value of the first is higher: 0.56% for the first, -4.18% for the second.

Compared with `O=C(O)C1C2CCC(C2)C1C(=O)N1CCN(c2ccccc2F)CC1` (stereo not shown), `CC(=O)N1CCN(c2csc3ccccc3c2=O)CC1` is higher in “% Inhibition @ 10 uM” value: -5.26% for the first, -0.972% for the second.

First: CC(=O)Nc1sc2c(c1CN1CCN(Cc3ccccc3)CC1)CCCC2
Second: O=C(CSc1nc2ccccc2nc1N1CCOCC1)N1CCN(Cc2ccccc2)CC1
The “% Inhibition @ 10 uM” value of the first is higher: 17.4% for the first, -1.72% for the second.

Going from `O=C(N/C(=C\c1cccnc1)c1nc2ccccc2[nH]1)c1cccc(Br)c1` to `Cc1ccc(C(=O)N/C(=C/c2cccnc2)C(=O)Nc2ccccc2C)cc1`, the “% Inhibition @ 10 uM” value rises from -7.08% to 4.65%.

Going from `Cn1c(=O)c2c(-c3ccccc3)n3ncccc3c2n(C)c1=O` to `Cn1c(=O)c2[nH]c(-c3ccc(Cl)cc3)c(O)c2n(C)c1=O`, the “% Inhibition @ 10 uM” value rises from -0.994% to 0.67%.

Compared with `CCSC1=NSC2=NC(=O)/C(=C\c3ccc(O)cc3)C(=N)N12`, `N=C1/C(=C/c2ccc(O)cc2)C(=O)N=C2SC(COc3ccccc3)=NN12` is lower in “% Inhibition @ 10 uM” value: 0.287% for the first, -1.6% for the second.

First: Cc1cc(C)c(C(=O)/C=C/c2ccc(Cl)cc2Cl)c(O)n1
Second: OC1=C2C(=Nc3ncnn3C2c2ccc(Cl)cc2Cl)CCC1 (stereo not shown)
The “% Inhibition @ 10 uM” value of the first is higher: 3% for the first, -3.37% for the second.

First: CC[C@H](C)[C@H](NC(=O)c1ccc(N(C)C)cc1)C(=O)NCC#N
Second: CCCC[C@H](NC(=O)[C@@H](NC(C)=O)C(C)C)C(=O)c1nc2ccccc2o1
The “% Inhibition @ 10 uM” value of the first is lower: -11% for the first, 2.86% for the second.

Going from `CC(C)CC(NC(=O)CCN1C(=O)c2ccccc2C1=O)c1ccccc1` (stereo not shown) to `CC(C)C(C(=O)Nc1cccc(Cl)c1)N1C(=O)c2ccccc2C1=O` (stereo not shown), the “% Inhibition @ 10 uM” value falls from -0.992% to -4.82%.

First: CCc1ccc(C2CC(c3ccc(OC)c(OC)c3)=NN2C(C)=O)cc1 (stereo not shown)
Second: CCC(=O)N1N=C(c2ccccc2)CC1c1cc2cc(OC)c(OC)cc2nc1Cl (stereo not shown)
The “% Inhibition @ 10 uM” value of the first is higher: 8.73% for the first, 6.79% for the second.

Going from `O=C(NCCc1cccs1)c1cnn(-c2ccccc2)c1-n1cccc1` to `CC1(C)Cc2c(cnn2-c2ccccc2)-c2[nH]c3ccccc3c21`, the “% Inhibition @ 10 uM” value rises from -7.44% to 4.42%.

Going from `N#C/C(=C\c1cc(Br)ccc1O)c1nc2ccccc2s1` to `N#CC1=C(N)Oc2cc(O)ccc2C1c1ccccc1Br` (stereo not shown), the “% Inhibition @ 10 uM” value falls from 5.7% to -1.98%.

Compared with `CC(C)C(=O)Nc1ccc2oc3ccccc3c2c1`, `CC(C)(C)NC(=O)c1oc2ccccc2c1NC(=O)COc1ccccc1` is higher in “% Inhibition @ 10 uM” value: -0.653% for the first, 2.77% for the second.

First: O=C(CCC(=O)n1ncc2ccc(Cl)cc21)NC1CCCc2ccccc21 (stereo not shown)
Second: O=C(Cn1ncn2nc(-c3cccs3)cc2c1=O)NC1CCCc2ccccc21 (stereo not shown)
The “% Inhibition @ 10 uM” value of the first is higher: 30.1% for the first, 2.27% for the second.

Compared with `C=C(C)Cn1c(SCC(C)C)nc2c1c(=O)[nH]c(=O)n2C`, `CCOC(=O)N1CCN(c2c(-c3ccc(C(C)C)cc3)c(=O)c2=O)CC1` is lower in “% Inhibition @ 10 uM” value: 2.51% for the first, 1.42% for the second.

Compared with `CC1=CC(C)(C)N(Cc2ccc([N+](=O)[O-])cc2)c2ccccc21`, `CCc1ccc(NC(=O)Cn2c(SC)nc3ccccc32)cc1` is higher in “% Inhibition @ 10 uM” value: -2.55% for the first, 3.8% for the second.

Going from `CN(C)CC/N=C/c1c(O)[nH]c2ccccc12` to `Cn1c(=O)[nH]c(O)c(/C=C/c2ccnc3ccccc23)c1=O`, the “% Inhibition @ 10 uM” value falls from 1.97% to 0.279%.

Going from `N#Cc1c(-c2ccccc2F)n2cnnc2n(Cc2ccccc2F)c1=O` to `C=CCN1CC(c2nc3ccccc3n2Cc2ccccc2C)CC1=O` (stereo not shown), the “% Inhibition @ 10 uM” value falls from 4.31% to -7.24%.

Going from `CC(=O)c1c(C(C)=O)c(C)n(NC(=O)c2ccccc2O)c1C` to `O=C(Nc1ccc(F)cc1)c1ccccc1NC(=O)c1ccccc1C(=O)O`, the “% Inhibition @ 10 uM” value rises from -3.4% to -2.65%.

Compared with `Cc1sc2ncnc(N3CCN(Cc4ccc5c(c4)OCO5)CC3)c2c1C`, `COc1ccc(CN2CCN(c3ccc(C(C)=O)cc3)CC2)cc1Br` is higher in “% Inhibition @ 10 uM” value: -6.02% for the first, 5.45% for the second.

Going from `O=C(CSc1nnc(-c2ccc(Cl)cc2Cl)n1-c1ccccc1)N1CCOCC1` to `O=C(NCCN1CCOCC1)c1cc(-c2ccccc2)on1`, the “% Inhibition @ 10 uM” value falls from 5.98% to -3.33%.

Compared with `Cc1ccc2oc(=O)c3cc(C(=O)N4CCN(C)CC4)sc3c2c1`, `CCC(C(=O)N1CCOCC1)n1nc(C)n2c(cc3cc(C)ccc32)c1=O` (stereo not shown) is lower in “% Inhibition @ 10 uM” value: -0.0593% for the first, -3.79% for the second.

First: CCN1C(=O)NC(=O)/C(=C\c2cn(CC(=O)NCC3CCCO3)c3ccccc23)C1=O (stereo not shown)
Second: CCCCc1ccc(C=C2C(=O)c3ccccc3C2=O)s1
The “% Inhibition @ 10 uM” value of the first is lower: -5.17% for the first, 0.273% for the second.

Compared with `COC(=O)c1sccc1NC(=S)N1CCN(C(=O)c2ccco2)CC1`, `CCOC(=O)c1c(S(=O)(=O)N2CCN(C(=O)c3ccco3)CC2)c(C)n(C)c1C` is higher in “% Inhibition @ 10 uM” value: -4.23% for the first, 1.26% for the second.

First: CCC(O)(CCN1CCCCC1)c1ccccc1 (stereo not shown)
Second: O=C(Nc1ccc(N2CCCCC2)cc1)c1cccc(F)c1
The “% Inhibition @ 10 uM” value of the first is higher: 3.19% for the first, -2.09% for the second.

Going from `CC1CCN(S(=O)(=O)c2cc(F)ccc2CN2C(=O)c3cccnc3C2=O)CC1` to `Cc1cccc(N2C(=O)CC(N3CCN(c4ccccc4)CC3)C2=O)c1` (stereo not shown), the “% Inhibition @ 10 uM” value rises from -4.4% to -0.48%.

First: COc1ccc(CN2CCCC(C)C2)c(C)c1C (stereo not shown)
Second: COc1ccc(N2CCN(Cc3cccc(O)c3)CC2)cc1
The “% Inhibition @ 10 uM” value of the first is lower: 1.62% for the first, 3.9% for the second.

Going from `O=C(NCCN1CCOCC1)C1CC2CCC1C2` (stereo not shown) to `CCOC(=O)c1cnc2c(Cl)cccc2c1NCCN1CCOCC1`, the “% Inhibition @ 10 uM” value rises from -1.54% to 5.41%.

First: CCCC1=NN2C(=N)/C(=C/c3ccccc3)C(=O)N=C2S1
Second: CCN(CC)CC(=O)N1c2ccccc2Sc2ccc(Cl)cc21
The “% Inhibition @ 10 uM” value of the first is higher: 10.1% for the first, 1.27% for the second.

First: CCCSC1=C(C#N)C(c2ccc(Cl)cc2Cl)CC(=O)N1 (stereo not shown)
Second: CC1=C(C(=O)OCC2CCCCC2)C(c2ccccc2Cl)CC(=O)N1 (stereo not shown)
The “% Inhibition @ 10 uM” value of the first is higher: 13.2% for the first, -2.24% for the second.

First: COc1ccc(OC)c(C2C3=C(O)CC(C)(C)CC3=Nc3ccc4ncccc4c32)c1 (stereo not shown)
Second: COc1ccc(-c2ccc3c(N)c(C(=O)NCCc4ccccc4)sc3n2)cc1OC
The “% Inhibition @ 10 uM” value of the first is lower: 6.13% for the first, 6.63% for the second.

First: Cc1ccc(C(=O)Nc2cc(C)cc(C)c2)cc1
Second: COc1ccc(C(=O)Nc2nc3nc(C)c(Cc4ccccc4)c(O)n3n2)cc1
The “% Inhibition @ 10 uM” value of the first is lower: 1.62% for the first, 3.66% for the second.

Going from `CSCC[C@@H](C(=O)NC1CCCCC1)N1Cc2ccccc2C1=O` to `O=C1Nc2ccccc2C1=C1CCCCC1`, the “% Inhibition @ 10 uM” value rises from 4.54% to 39.9%.

Compared with `COc1ccc2c(CNCCC3=CCCCC3)c(C(=O)O)n(C)c2c1`, `NS(=O)(=O)c1ccc(CCNC(=O)c2cc3c(nc2O)CCCC3)cc1` is lower in “% Inhibition @ 10 uM” value: -2.39% for the first, -5.72% for the second.

Compared with `O=c1c2c3c(sc2nc2n1CCCCC2)CCCCC3`, `CC(=O)N1C2=C(CCCC2)C(=O)NC12CCCCC2` is lower in “% Inhibition @ 10 uM” value: -1.57% for the first, -3.12% for the second.

Compared with `NC(=S)N/N=C/c1sc(O)nc1Cl`, `Cc1ccc(NC(=O)CSc2nc(N)cc(N)n2)c(C)c1` is lower in “% Inhibition @ 10 uM” value: 0.222% for the first, -1.55% for the second.

Going from `COc1ccc(N2C(=O)/C(=C\c3ccc(Cl)cc3)S(=O)(=O)C2c2ccc(Cl)cc2)cc1` (stereo not shown) to `COc1ccc(C2C(C(=O)c3ccc(Cl)cc3)=C(O)C(=O)N2c2ccc(NC(C)=O)cc2)cc1` (stereo not shown), the “% Inhibition @ 10 uM” value rises from -1.91% to 2.82%.

Compared with `O=C(O)c1ccccc1C(=O)Nc1ccc(S(=O)(=O)Nc2ccc(F)cc2)cc1`, `Cc1cc(C)nc(NS(=O)(=O)c2ccc(NC(=O)COc3ccc(Cl)c(C)c3)cc2)n1` is higher in “% Inhibition @ 10 uM” value: -2.03% for the first, 5.25% for the second.

Going from `O=C(c1ccncc1)N1CCC(c2c[nH]c3ccccc23)(c2c[nH]c3ccccc23)CC1` to `c1ccc2c(CNc3ccc(CNc4nc[nH]n4)cc3)cccc2c1`, the “% Inhibition @ 10 uM” value falls from 1.03% to -1.61%.

Going from `CCc1nn(CC(=O)NCCc2ccc(OC)c(OC)c2)c(=O)c2cc3cc(F)ccc3n12` to `COc1cc(-c2noc(CCCC(=O)NCc3ccccc3)n2)cc(OC)c1OC`, the “% Inhibition @ 10 uM” value falls from 3.29% to 2.21%.

Compared with `CN(Cc1ccccc1)C(=O)c1cc2n(n1)C(C(F)(F)F)CC(c1ccccc1)N2` (stereo not shown), `O=C(N(Cc1ccccc1)c1ccccn1)C12CC3CC(CC(C3)C1)C2` is lower in “% Inhibition @ 10 uM” value: -2.6% for the first, -4.18% for the second.

First: Cc1ccccc1NC(=O)C(C)Oc1ccccc1 (stereo not shown)
Second: O=C(Nc1ccccc1Br)c1ccccc1F
The “% Inhibition @ 10 uM” value of the first is lower: -6.39% for the first, -4.94% for the second.

First: Cc1ccccc1CSCc1ccc(C(=O)NCc2ccco2)o1
Second: NC(=O)NC(c1ccccc1)c1ccc(Cl)cc1 (stereo not shown)
The “% Inhibition @ 10 uM” value of the first is lower: 1.41% for the first, 4.61% for the second.

First: Cc1ccc2nsnc2c1NC(=O)c1ccc2c(c1)OCCO2
Second: O=[N+]([O-])c1ccc2[nH]c(-c3ccc(O)nn3)nc2c1
The “% Inhibition @ 10 uM” value of the first is higher: -0.725% for the first, -1.97% for the second.

Going from `CCOc1cc(CN2CCN(c3cccc(C(F)(F)F)c3)CC2)ccc1O` to `CCOC(=O)N1CCN(CC(O)COc2ccc(C34CC5CC(CC(C5)C3)C4)cc2)CC1` (stereo not shown), the “% Inhibition @ 10 uM” value rises from -5.65% to 0.343%.

Going from `CC(C)CCN1CCC(CNS(=O)(=O)c2ccc(-c3cc(C(F)(F)F)no3)s2)CC1` to `C=CCOC(=O)c1cn(CC)c2nc(C)ccc2c1=O`, the “% Inhibition @ 10 uM” value falls from 9.33% to -1.69%.

Going from `Cc1cc(C)n(CCCNC(=O)C(=O)NCCCn2nc(C)cc2C)n1` to `CCCCC(=O)Nc1ccc(C)cc1NC(=O)CCCC`, the “% Inhibition @ 10 uM” value falls from 8.27% to -2.24%.

Compared with `CSc1nc(O)c2cnn(-c3ccc(C)cc3)c2n1`, `CCN(CC)C(=O)CSc1nnc(-c2ccc(OC)cc2)o1` is higher in “% Inhibition @ 10 uM” value: -1.54% for the first, -1.26% for the second.
